Each structure is given as a SMILES string. Screen size: about 310,000 compounds; about 14,000 (4.5%) showed an effect of 50% or more. The effect is printed as a negative number. This is one part of the list.
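Further: peak tail current of the secondary pulse compared with the same well before compound.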

The target in the experiment is human ether-à-go-go-related gene (hERG) potassium channel (human, UniProt Q12809). The experiment in a line: primary screen, population patch clamp on CHO cells stably expressing hERG.
Sequence of human ether-à-go-go-related gene (hERG) potassium channel (Q12809 whole entry, looked up): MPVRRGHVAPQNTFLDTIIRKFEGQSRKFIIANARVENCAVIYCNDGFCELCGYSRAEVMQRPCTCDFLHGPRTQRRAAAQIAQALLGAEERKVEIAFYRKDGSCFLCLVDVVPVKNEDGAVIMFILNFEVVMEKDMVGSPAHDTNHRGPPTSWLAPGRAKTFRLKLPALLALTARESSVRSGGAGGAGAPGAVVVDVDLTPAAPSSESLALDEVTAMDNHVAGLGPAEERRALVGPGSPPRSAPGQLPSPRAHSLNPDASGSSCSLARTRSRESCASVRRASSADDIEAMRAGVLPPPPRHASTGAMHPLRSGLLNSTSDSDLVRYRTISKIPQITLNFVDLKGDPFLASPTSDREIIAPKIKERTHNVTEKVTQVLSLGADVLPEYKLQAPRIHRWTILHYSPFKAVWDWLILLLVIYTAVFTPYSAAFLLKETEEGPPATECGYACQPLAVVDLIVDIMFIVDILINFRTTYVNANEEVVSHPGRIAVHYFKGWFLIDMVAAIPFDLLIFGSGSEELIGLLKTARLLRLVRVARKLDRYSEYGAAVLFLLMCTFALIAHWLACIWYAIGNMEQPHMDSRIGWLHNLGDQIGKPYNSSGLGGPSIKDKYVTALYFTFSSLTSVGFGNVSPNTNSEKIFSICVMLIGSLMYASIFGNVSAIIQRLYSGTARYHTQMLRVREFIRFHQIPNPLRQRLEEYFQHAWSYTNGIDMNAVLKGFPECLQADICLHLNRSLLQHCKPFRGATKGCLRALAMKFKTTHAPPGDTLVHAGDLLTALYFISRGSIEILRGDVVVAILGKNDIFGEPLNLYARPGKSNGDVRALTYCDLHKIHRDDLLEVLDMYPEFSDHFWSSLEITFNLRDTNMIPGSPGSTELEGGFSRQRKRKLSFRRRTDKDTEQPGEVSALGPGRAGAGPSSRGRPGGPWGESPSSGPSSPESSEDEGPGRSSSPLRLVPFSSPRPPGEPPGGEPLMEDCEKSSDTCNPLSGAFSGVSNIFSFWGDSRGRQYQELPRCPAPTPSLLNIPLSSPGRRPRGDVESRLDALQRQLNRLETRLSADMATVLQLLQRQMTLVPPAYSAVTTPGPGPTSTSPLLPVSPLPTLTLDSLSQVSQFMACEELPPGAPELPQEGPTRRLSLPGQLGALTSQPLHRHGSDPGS
With `O=C(CSCc1c(Cl)cccc1Cl)NN=C1CCCC1`, the “hERG current change (%, negative = inhibition) at 10uM” value amounted to 1.77%.
Then `Cc1ccc(-n2nc3c(c2NC(=O)c2ccc4c(c2)OCO4)CS(=O)C3)cc1` (stereo not shown), with 7.09%.
Then `COc1cccc2sc3ccc(NCc4ccc5c(c4)OCO5)cc3c(=O)c12`, with -0.817%; and `CN(CC(=O)Nc1ccc(N2CCOCC2)cc1)CC(=O)Nc1ccc([N+](=O)[O-])cc1Br`, with 18.9%.
Then `COc1ccc(C)cc1NC(=O)/C=C/c1ccc(OC)c(S(=O)(=O)N2CCOCC2)c1`, with -15.7%; and `O=C(CN1C(=O)c2ccccc2S1(=O)=O)N1CCc2ccccc21`, with 9.85%; and `CCCCOC(=O)c1ccc(NC(=O)C(=O)NCCN(CC)CC)cc1`, with -73.2%.
As for `CCn1c(CSc2nc(C)cc(C)n2)nnc1SCC(N)=O`, the “hERG current change (%, negative = inhibition) at 10uM” value is 22.4%.
For `C/C(CCc1oc2c(Br)cc(Br)cc2c1-c1ccc(C)o1)=N\O` the value was 15%; for `Cc1cc(N2CCCC2=O)cc(C)c1S(=O)(=O)Nc1c(C)nn(C)c1C`, 22.7%; for `Cc1cc2oc(=O)cc(CSc3nc(N)cc(N)n3)c2cc1C`, 6.12%.
As to `CC(=NCc1ccc2c(c1)OCO2)c1c(O)n(-c2ccc(C)cc2)c(=O)[nH]c1=O`, the “hERG current change (%, negative = inhibition) at 10uM” value is listed as 3.47%.
Then `CCOc1cc(C(=O)Nc2ccc(S(=O)(=O)Nc3nnc(CC)s3)cc2)cc(OCC)c1OCC`, with 33.7%; and `CS(=O)(=O)Nc1cccc(C2=NN(S(=O)(=O)c3ccccc3)C(c3ccco3)C2)c1` (stereo not shown), with -29.9%; and `O=C(Nc1cccnc1)Nc1cccc([N+](=O)[O-])c1`, with -20.3%.
Then `O=C(Nc1ccc(F)cc1F)c1cccn(Cc2ccccc2)c1=O`, with 13.1%.
Turning to `Cc1ccc(S(=O)(=O)N2CCN(CC(=O)N/N=C/c3ccco3)CC2)cc1`, the “hERG current change (%, negative = inhibition) at 10uM” value is listed as -33%.
Then `Cc1cccc(OCCCOc2cccc3cccnc23)c1C`, with 10.4%; and `O=C(CSc1ncn[nH]1)Nc1ccc(S(=O)(=O)N2CCCC2)cc1`, with 14.5%; and `O=C(O)CCCC(=O)N1CCc2cc(S(=O)(=O)NCc3ccccc3)ccc21`, with 33.7%.
For the compound `Cc1cc(C)n2nc(C(=O)OCC(=O)N(C)CC(=O)Nc3ccccc3Cl)nc2n1`, the “hERG current change (%, negative = inhibition) at 10uM” value is recorded as 7.77%.
In the case of `CC1CCN(C(=O)CCCC(=O)N2CCC(C)CC2)CC1`, the “hERG current change (%, negative = inhibition) at 10uM” value is on record as -11.9%.
Then `CCOC(=O)CNC(=O)CSc1nnc(NC(=O)c2ccc3c(c2)OCO3)s1`, with 3.8%; and `CC(C)CNC(=O)COC(=O)/C=C/c1ccco1`, with 2.19%; and `COc1ccc(S(=O)(=O)N2CCN(c3ccc4nnc(-c5ccccc5)n4n3)CC2)cc1`, with -66.4%.
Then `O=C1c2ccccc2C(=O)N1/N=C/c1ccc(Oc2ccc([N+](=O)[O-])cn2)cc1`, with -23.7%.
Then `COc1ccc(-c2nn(-c3ccccc3)cc2/C=C(/C#N)C(N)=O)cc1[N+](=O)[O-]`, with -7.55%.
Regarding `Cc1ccc(C(=O)Oc2oc(-c3ccco3)nc2C=Nc2ccc(Cl)cc2)cc1`, the “hERG current change (%, negative = inhibition) at 10uM” value turned out to be 12.8%.
Then `CCOc1ccc(-c2nc(CSCC(=O)N3CCN(c4cccc(OC)c4)CC3)c(C)o2)cc1`, with -21.3%; and `N/C(=N\N=C\c1ccc2c(c1)OCO2)c1nonc1N`, with 3.29%; and `CC(=O)Nc1ccc(N2C(=O)C3C4C=CC(CC4)C3C2=O)cc1` (stereo not shown), with 13.1%.
For `O=C(NC1CCN(Cc2ccccc2)CC1)c1ccc(S(=O)(=O)NCc2ccco2)cc1`, the “hERG current change (%, negative = inhibition) at 10uM” value is recorded as -12.3%.
On to `O=C1c2ccccc2C(=O)N1CC(O)COc1ccc(Br)cc1` (stereo not shown), for which the “hERG current change (%, negative = inhibition) at 10uM” value is given as -1.51%.
As for `CCOC(=O)C1(CCc2ccccc2)CCN(Cc2cccc3cnccc23)CC1`, the “hERG current change (%, negative = inhibition) at 10uM” value was -69.6%.
Then `[Cl-].[NH3+][C@@H](Cc1ccccc1)C(=O)N1CCOCC1`, with 16.1%; and `CCOC(=O)C1=C(c2ccccc2)NC(=O)NC1c1cc(OCC)c(O)c([N+](=O)[O-])c1` (stereo not shown), with 22.8%.
Regarding `CC1=C(C(=O)NCc2ccccc2)C(c2ccccc2OCC(N)=O)NC(=O)N1` (stereo not shown), the “hERG current change (%, negative = inhibition) at 10uM” value was -2.76%.
Consider `CC(C)C(c1nnnn1Cc1ccc2c(c1)OCO2)N1CCN(c2ccccc2)CC1` (stereo not shown), for which the “hERG current change (%, negative = inhibition) at 10uM” value came to 23.1%.
Then `O=C(COc1ccc(Cl)c2cccnc12)N1CCOCC1`, with 9.56%; and `CCO[C@@H]1OC(C(=O)O)=C[C@H](C2CCCCC2)[C@H]1CCCO`, with 6%.
Then `Cc1cc(C(=O)Nc2ccc(Cl)cc2)c(C)n1Cc1cccs1`, with -6.19%.
For `CCOC(=O)c1c(NC(=O)c2cccnc2)sc(C(C)=O)c1C`, the “hERG current change (%, negative = inhibition) at 10uM” value is given as -5.09%.
With `Cc1cccc(NC(=S)N2CCN(C(=O)c3ccco3)CC2)c1`, the “hERG current change (%, negative = inhibition) at 10uM” value was -9.36%.
On to `Cc1cc(OCc2cc(C(=O)N(C)CCOc3ccccc3)no2)cc(C)c1Cl`, for which the “hERG current change (%, negative = inhibition) at 10uM” value came out at 8.54%.
For `Cc1c2ccccc2nc2c(F)c(NCCO)c(F)c(F)c12` the value was -5.67%; for `COc1cc(C#N)ccc1OCC(=O)Nc1cccc(S(=O)(=O)N2CCCC2)c1`, -44.4%.
`COc1cccc(C(=O)NC(=S)Nc2ccc([N+](=O)[O-])cc2C)c1`: the “hERG current change (%, negative = inhibition) at 10uM” value amounted to 3.64%.
Then `Cc1onc(-c2c(F)cccc2Cl)c1C(=O)Nc1ccccc1N1CCOCC1`, with -10.6%; and `O=C(COC(=O)CN1C(=O)c2ccccc2C1=O)Nc1ncc(Cl)cc1Cl`, with -14.7%; and `CCOC(=O)c1c(C)[nH]c(C(=O)OCC(=O)N2CC(C)OC(C)C2)c1C` (stereo not shown), with 12.2%.
With `Cc1ccc(S(=O)(=O)N2[C@@H](c3ccccc3)C(C(=O)O)=CC[C@H]2c2ccc(Cl)c(Cl)c2)cc1`, the “hERG current change (%, negative = inhibition) at 10uM” value was 23.8%.
For `COc1ccc(-c2nnc(SCC(=O)Nc3ncc(C(F)(F)F)cc3Cl)n2CC(C)C)cc1` the value was -41.7%.
On to `Cc1ccc(CCNC(=O)C2CCCN(S(=O)(=O)c3cccc4nsnc34)C2)cc1` (stereo not shown), for which the “hERG current change (%, negative = inhibition) at 10uM” value was 4.66%.
Then `S=C(c1ccccc1)N1CCCc2ccccc21`, with -4.95%.
For `CC1CN(C(=O)Cn2cc(S(=O)(=O)CC(=O)N3CCOCC3)c3ccccc32)CC(C)O1` (stereo not shown) the value was 17.3%.
For `Cc1ccc(C2=NN(CC(=O)NCc3ccccn3)C(=O)CC2)cc1` the value was -11.6%.
On to `Cc1ccc(CNC(=O)CN(C(=O)C2(C)CC(=O)N=C3C=CC=CN32)c2cccc(C)c2C)cc1` (stereo not shown), for which the “hERG current change (%, negative = inhibition) at 10uM” value was 8.06%.
`Cc1ccc(C)c(CSc2nnc(C)c(=O)[nH]2)c1`: the “hERG current change (%, negative = inhibition) at 10uM” value came to 13.6%.
Take `CCOC(=O)c1c(C)oc(C)c(C(=O)OCC)c1=O`: the “hERG current change (%, negative = inhibition) at 10uM” value is 22.7%.
For `COc1ccc(CS(=O)(=O)c2nc(C)cc(C)c2S(C)(=O)=O)cc1` the value was 0.759%; for `COc1cc(NS(=O)(=O)c2ccc(N/C=C(\C#N)c3nc4ccccc4o3)cc2)nc(OC)n1`, -13.6%.
As to `CC(=O)Nc1ccc(Nc2nnc(-c3ccc(C)c(S(N)(=O)=O)c3)c3ccccc23)cc1`, the “hERG current change (%, negative = inhibition) at 10uM” value is listed as 12.7%.
For `CC1Cc2ccccc2N1C(=O)Cn1c(=O)oc2cc(S(=O)(=O)N3CCCCC3)ccc21` (stereo not shown) the value was -4.06%.
Then `CC1CCN(S(=O)(=O)c2ccc(C(=O)N3CCCC3C(=O)O)cc2)CC1` (stereo not shown), with 11%; and `O=C1CC(NS(=O)(=O)c2cc(F)ccc2F)CN1c1cccc(F)c1` (stereo not shown), with 7.04%; and `O=C(NNS(=O)(=O)c1ccccc1[N+](=O)[O-])c1ccccc1[N+](=O)[O-]`, with 33.7%.
Consider `CN1CCN(S(=O)(=O)c2cccc(C(=O)Nc3cc(C(F)(F)F)ccc3N3CCCCC3)c2)CC1`, for which the “hERG current change (%, negative = inhibition) at 10uM” value was determined as 6.04%.
Then `Cc1cc(OC(=O)c2cccs2)ccc1C(C)C`, with 12.1%; and `CN(C)c1ccc(/C=C2/SC(=O)N(CCN=C3NS(=O)(=O)c4ccccc43)C2=O)cc1`, with 6.14%; and `CCOc1ccc(C(=O)Nc2ccccc2NC(C)=O)cc1OCC`, with 17.6%.
Then `COc1ccc(/C=C2\SC(=S)N(CCC(=O)N(CCO)Cc3ccccc3)C2=O)cc1OC`, with -0.362%; and `COc1ccc(CCC(=O)N2CCN(S(=O)(=O)c3ccc4ccccc4c3)CC2)cc1`, with 1.63%.
Then `CCOC(=O)C1(Cc2ccccc2C)CCCN(C(=O)c2ccccn2)C1` (stereo not shown), with 10.8%; and `C=CCNc1sc(C(=O)c2ccccc2)c(N)c1-c1nc2ccccc2s1`, with 12%.
Turning to `COc1ccc(C2C3=C(CC(C)(C)CC3=O)Nc3c2c(=O)[nH]c(=O)n3Cc2ccccc2)cc1` (stereo not shown), the “hERG current change (%, negative = inhibition) at 10uM” value was 8.57%.
For `O=c1cc(N2CCc3ccccc32)[nH]c(=O)n1-c1ccc(Cl)cc1` the value was 10.6%; for `CC(C)CCC(CC(C)O)c1n[nH]c(=S)n1-c1ccccc1` (stereo not shown), 19%; for `Cc1cc(C)c(S(=O)(=O)N2CCN(c3ccc([N+](=O)[O-])c(NCc4ccco4)c3)CC2)c(C)c1`, 16.5%.
For `CC(C)NC(=O)c1ccc(-c2cccc(C(F)(F)F)c2)o1` the value was 7.19%; for `Cc1ccc(NC(=O)c2cccc(OCc3c(C)noc3C)c2)cc1S(=O)(=O)Nc1ccccc1Cl`, -3.21%.
Then `COc1ccc(CC(=O)NCc2n[nH]c(=S)n2-c2ccccc2)cc1`, with 15.1%.
`CCC1SC2=NC(C)=C(C(=O)OC)C(c3ccc(C(=O)OC)cc3)N2C1=O` (stereo not shown): the “hERG current change (%, negative = inhibition) at 10uM” value is listed as -5.68%.

The record behind these values is PMC4336329 (PLoS ONE, 2015).
